Experimental data taken from paper PMC12040169 (PLOS Biology, 2025).
The other results are listed elsewhere or left out.

test system: T1, C. trachomatis L2/434/Bu expressing GFP (CTL2-GFP); set-up: species or system HeLa; C. trachomatis total inclusion area by high-content imaging, normalised to DMSO; conditions: total inclusion area; 28.5 h, 10 µM; inhibitor
T1 construct: L2/434/Bu GFP intracellular growth in HeLa cells
In short: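 High-content imaging followed the bulk GFP/resorufin measurement: fixed, Hoechst-stained cells were scored for GFP inclusions and host nuclei per well. Total inclusion area and count served as growth proxies, nuclei number as the viability proxy. MIC calculation matched the bulk assay.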

Compared with `CN(C)CCN(Cc1ccncc1)Cc1cc(F)ccc1F` [CBK283095], `CCN(Cc1ccncc1)S(=O)(=O)c1ccc(Cl)c(Cl)c1` [CBK043818] is lower in “% of control remaining” value: 98.2371 for the first, 83.846 for the second.

First: O=C(Nc1ccc(F)cc1)c1ccc(=O)n(CC(=O)N2CCC3(CCCCC3)C2)c1 [CBK286006]
Second: O=C(CN1CCCC1)Nc1sc2c(c1C(=O)Nc1ccccc1)CCCC2 [CBK268800]
The “% of control remaining” value of the first is higher: 93.1056 for the first, 70.7924 for the second.

Going from `c1ccc2c(c1)OCC(COc1nccc(N3CCCN(Cc4ccc5c(c4)OCO5)CC3)n1)O2` (stereo not drawn) [CBK083235T] to `CS(=O)(=O)Nc1nccnc1N1CCN(Cc2ccccc2)CC1` [CBK084268], the “% of control remaining” value rises from 63.5383 to 98.5385.

Going from `O=C(Cn1cnc2ccccc2c1=O)Oc1cccc(NC2=NS(=O)(=O)c3ccccc32)c1` [CBK264975] to `CCOc1ccccc1N1CCN(C(=O)c2cc(-c3ccccc3C)nc3ccccc23)CC1` [CBK091950], the “% of control remaining” value falls from 97.3341 to 74.3226.

First: O=C(NCCCn1ccnc1)N1CCN(Cc2ccc(Cl)cc2)CC1 [CBK305894]
Second: O=C(CCc1ccc(Cl)cc1)NCCn1cncn1 [CBK283184]
The “% of control remaining” value of the first is lower: 35.8713 for the first, 87.9874 for the second.

Going from `COc1ncc(-c2cncc(NCCO)n2)c(OC)n1` [CBK037939] to `COc1ccc(C(C)C)cc1-c1cncc(NCC(C)(C)CO)n1` [CBK065206], the “% of control remaining” value falls from 131.009 to 104.291.

First: O=C(C1CC1)N1CCC(n2nc(-c3cccs3)ccc2=O)CC1 [CBK284213]
Second: CC1CCN(C(=O)COC(=O)c2cnc(-c3ccncc3)s2)CC1 [CBK306255]
The “% of control remaining” value of the first is lower: 71.6949 for the first, 96.2372 for the second.

Compared with `CCn1cc(C2CN(S(=O)(=O)c3cc(C)c(OC)c(C)c3)CCO2)cn1` (stereo not drawn) [CBK304224], `CCn1c(C2CC(=O)N(c3ccc(C)cc3C)C2)nc2ccccc21` (stereo not drawn) [CBK287505] is higher in “% of control remaining” value: 26.7955 for the first, 99.6819 for the second.

First: Cc1ccc(C(=O)Nc2ccccc2C(=O)NC(C)C(=O)O)cc1 (stereo not drawn) [CBK263540]
Second: CS(=O)(=O)c1ccc(C(=O)Nc2nc(-c3ccccc3)cs2)cc1 [CBK287716]
The “% of control remaining” value of the first is higher: 113.929 for the first, 48.5433 for the second.

Compared with `Cc1ccc2c(c1)c(NC(=O)OC(C)C)nn2Cc1cc2c(cc1Cl)OCO2` [CBK048652], `OCCNc1nccnc1-c1ccc2c(c1)OCO2` [CBK088984] is lower in “% of control remaining” value: 108.519 for the first, 101.374 for the second.

Compared with `Cc1ccc2[nH]c(C3CCCCN3C(=O)c3ccncc3)nc2c1` (stereo not drawn) [CBK284000], `COC(=O)[C@H]1CN(C(=O)c2ccncc2)C[C@@H]1c1ccc(F)cc1` [CBK283509] is lower in “% of control remaining” value: 106.424 for the first, 80.9151 for the second.

Compared with `Cc1cc(C)c(NC(=O)C2CCCN2CCCN(C)C)c(C)c1` (stereo not drawn) [CBK278172F], `COc1ccc(NC(=S)NCCN2CCC(C)CC2)cc1Cl` [CBK267268] is lower in “% of control remaining” value: 99.6426 for the first, 72.4201 for the second.

Compared with `Nc1ncnc2c1ccn2[C@H]1C[C@@H](O)[C@@H](CO)O1` [CBK201258], `COC(=O)/C=C/c1cn(C2CC(O)C(CO)O2)c(=O)[nH]c1=O` (stereo not drawn) [CBK201244] is higher in “% of control remaining” value: 111.569 for the first, 156.009 for the second.

Going from `O=C(c1ccc(F)cc1)C1CCN(CCC(c2ccccc2)c2ccccc2)CC1` [CBK149138] to `O=C(NC(c1ccc(Cl)cc1)c1ccsc1)C1CCN(CCOc2ccccc2)CC1` (stereo not drawn) [CBK147951], the “% of control remaining” value rises from 81.8005 to 105.047.

Going from `CN(C)S(=O)(=O)c1ccc(C(=O)Nc2cccc(N3Cc4ccccc4C3)c2)cc1` [CBK266025] to `CCOC(=O)CN(Cc1ccccc1)S(=O)(=O)c1ccc(C(C)C)cc1` [CBK043404], the “% of control remaining” value falls from 126.453 to 88.9464.

Going from `O=[N+]([O-])c1ccc(-c2nc(-c3ccccc3)c(-c3ccc4oc5ccc(-c6[nH]c(-c7ccc([N+](=O)[O-])cc7)nc6-c6ccccc6)cc5c4c3)[nH]2)cc1` [CBK261434] to `O=c1cc2oc3cc(O)c(O)cc3c(-c3ccc(OCc4cccc([N+](=O)[O-])c4)cc3)c-2cc1O` [CBK265408], the “% of control remaining” value rises from 89.1529 to 112.41.

Going from `Cc1nc2c(c(=O)[nH]1)CCN(C(=O)c1oc3ccccc3c1C)C2` [CBK283752] to `Cc1cccc(C)c1NC(=O)C(C)Sc1nc2ccccc2c(=O)n1CC1CCCO1` (stereo not drawn) [CBK068151], the “% of control remaining” value rises from 94.4936 to 98.8654.

First: CCOc1cc(S(=O)(=O)NCc2ccccn2)ccc1Cl [CBK266817]
Second: Cc1cccc(Cl)c1S(=O)(=O)c1ccc2ccnc(N3CCNCC3)c2c1 [CBK036394C]
The “% of control remaining” value of the first is higher: 105.645 for the first, 80.0828 for the second.

Compared with `COc1cc(CNc2ccc(N3CCOCC3)c(Cl)c2)ccc1OCc1ccccc1F` [CBK074392], `O=C(O)c1ccc(NCc2ccccc2OCc2ccc(F)cc2)cc1` [CBK266487] is higher in “% of control remaining” value: 81.4098 for the first, 131.182 for the second.

Going from `Sc1nnc(C2CCCC2)n1CC1CCCO1` (stereo not drawn) [CBK288413] to `Cc1cc2c(o1)CCc1sc(N(C)C(=O)C3CCCO3)nc1-2` (stereo not drawn) [CBK281932], the “% of control remaining” value rises from 78.8082 to 102.149.

First: Cc1ccsc1CN1CCOCC1 [CBK026429]
Second: COc1ccc(CC(=O)NCC(c2cccs2)N2CCOCC2)cc1F (stereo not drawn) [CBK305618]
The “% of control remaining” value of the first is higher: 112.219 for the first, 44.3309 for the second.

Going from `CCOc1cccc(-c2ccc(Nc3ccc(Oc4ccccc4)cc3)nc2)c1` [CBK037679] to `Cc1c(NC(=O)CSc2nnc(-c3cccc([N+](=O)[O-])c3)n2C)c(=O)n(-c2ccccc2)n1C` [CBK266757], the “% of control remaining” value rises from 74.2508 to 112.456.

First: CCN(Cc1cnn(C)c1)[C@H]1CCO[C@@H](c2ccccc2-c2ccc(OC)cc2)C1 [CBK285854]
Second: CS(=O)(=O)Nc1ccc(-c2ccc3c(c2)CCO3)c2ccccc12 [CBK083753]
The “% of control remaining” value of the first is higher: 98.9184 for the first, 29.4164 for the second.

Compared with `O=C(NCCc1c[nH]c2ccc(Cl)cc12)c1c(F)ccc(Cl)c1F` [CBK159756], `Cc1ccc(-c2ccc(/C=N\NC(=O)C3C(=O)NCC3c3ccccc3)o2)cc1Cl` (stereo not drawn) [CBK262808] is higher in “% of control remaining” value: 4.619 for the first, 90.2265 for the second.

Compared with `CC1(C)CCCN1C1=NC(=O)C(c2ccccc2)O1` (stereo not drawn) [CBK023070], `Cn1c(=O)n(C)c2cc(CNC3(c4ccccc4)CC3)ccc21` [CBK282746] is higher in “% of control remaining” value: 109.056 for the first, 109.253 for the second.

First: CSc1nnnn1-c1cccc(NC(=O)N2CCCN(C)CC2)c1 [CBK304180]
Second: CN1CCN(CCCNC(=O)N2CCN(c3cc(C(F)(F)F)ccn3)CC2)CC1 [CBK156431]
The “% of control remaining” value of the first is higher: 101.31 for the first, 83.3656 for the second.

First: CC1CC(C)CN(CCCNC(=O)c2cc(C(C)C)nn2C)C1 (stereo not drawn) [CBK282665]
Second: Cn1nc2n(c1=O)CC(C(=O)NCCN1CCCc3ccccc31)CC2 (stereo not drawn) [CBK307206]
The “% of control remaining” value of the first is higher: 102.079 for the first, 36.63 for the second.

First: Cc1noc(C)c1CN1CCC(Oc2ccccc2)CC1 [CBK305811]
Second: CC(C)Cn1cnc(S(=O)(=O)N2CCC(Cc3ccccc3)CC2)c1 [CBK306273]
The “% of control remaining” value of the first is higher: 50.7764 for the first, 39.1494 for the second.

Going from `CC(C)(C)OC(=O)N1CCN(Cc2ccn(Cc3ccc(S(C)(=O)=O)cc3)c2)CC1` [CBK144936] to `CS(=O)(=O)c1ccc(CN2CC[C@H](c3nc4ncccc4[nH]3)C2)cc1` [CBK289385], the “% of control remaining” value rises from 69.0433 to 107.447.

First: O=C(COc1cccnc1)N1CCc2ccccc21 [CBK200268]
Second: COc1ccccc1N1CCN(CC(CC(=O)Nc2ccccc2)C(=O)O)CC1 (stereo not drawn) [CBK286766]
The “% of control remaining” value of the first is lower: 93.6358 for the first, 111.853 for the second.

Compared with `NC(=O)c1ccc(-c2ccc(/C=C3/C(=O)NN(c4ccc(F)cc4)C3=O)o2)cc1` [CBK098345], `CCSc1ccc(-c2cc(N(C)c3cccc(C)c3)n3nccc3n2)cc1` [CBK037115] is lower in “% of control remaining” value: 97.7885 for the first, 92.3507 for the second.

Compared with `COC(=O)[C@H]1CN(C(=O)c2cscn2)C[C@@H]1c1ccc(F)cc1` [CBK283785], `COc1ccc(C(=O)Nc2nc(-c3ccc4c(c3)OCCO4)cs2)cc1OC` [CBK287588] is lower in “% of control remaining” value: 103.67 for the first, 103.12 for the second.

Compared with `Cn1cc(NC(=O)CCn2c(C(F)(F)F)cc3cccnc32)cn1` [CBK284866], `CN(C)CCN(C)c1nc(-c2ccccc2F)cn2ccnc12` [CBK037406] is lower in “% of control remaining” value: 75.5784 for the first, 63.7653 for the second.

Going from `CC1CCc2c(sc(Nc3nc4c(F)cccc4s3)c2C(N)=O)C1` (stereo not drawn) [CBK287477] to `Cc1[nH]c2ccccc2c1C(=O)CSc1nnc(N)s1` [CBK266328], the “% of control remaining” value rises from 56.6996 to 123.736.

Going from `Cc1nn(-c2ccccc2)c2sc(C(=O)N3CCN(C(=O)c4ccccc4)CC3)cc12` [CBK297554] to `CN(C)C(=O)c1ccc(Cn2ccnc(N3CCC(Sc4ccccc4)CC3)c2=O)cc1` [CBK153651], the “% of control remaining” value rises from 97.0834 to 107.693.

First: CNS(=O)(=O)c1ccc(NC(=O)Nc2ccc([N+](=O)[O-])cc2OC)cc1 [CBK266939]
Second: COc1ccc(S(=O)(=O)N(C)CC(=O)O)c2ccccc12 [CBK268459]
The “% of control remaining” value of the first is higher: 105.577 for the first, 75.0682 for the second.

Compared with `O=C(O)CCCN1C(=O)c2ccccc2C1=O` [CBK056635], `CN(C)c1ccc(/C=C(\C#N)c2nn(-c3ccccc3)c(N)c2C#N)cc1[N+](=O)[O-]` [CBK262532] is higher in “% of control remaining” value: 67.7233 for the first, 101.725 for the second.

First: Cc1cc(OC(C)C(=O)Nn2cnnc2)ccc1Cl (stereo not drawn) [CBK269690]
Second: COCCn1c(SC(C)C(=O)N2CCOCC2)nc2cc(Cl)ccc21 (stereo not drawn) [CBK305580]
The “% of control remaining” value of the first is higher: 93.2438 for the first, 31.6759 for the second.

First: O=C1NC(=O)C2(CCN(C(=O)c3csc4c3CCCC4)CC2)N1 [CBK305601]
Second: CCN1CCC(CNS(=O)(=O)c2ccc(N3CCCC3=O)cc2)CC1 [CBK305663]
The “% of control remaining” value of the first is lower: 53.0361 for the first, 101.221 for the second.
